The whole screen tested about 310,000 compounds, of which about 2,200 (0.71%) showed an effect of 50% or more. Effects have a minus sign here. Some of the results follow.
The molecules below were run against human ether-à-go-go-related gene (hERG) potassium channel (human, UniProt Q12809) (assay: primary screen, population patch clamp on CHO cells stably expressing hERG).
Chain of human ether-à-go-go-related gene (hERG) potassium channel (Q12809 whole entry, looked up): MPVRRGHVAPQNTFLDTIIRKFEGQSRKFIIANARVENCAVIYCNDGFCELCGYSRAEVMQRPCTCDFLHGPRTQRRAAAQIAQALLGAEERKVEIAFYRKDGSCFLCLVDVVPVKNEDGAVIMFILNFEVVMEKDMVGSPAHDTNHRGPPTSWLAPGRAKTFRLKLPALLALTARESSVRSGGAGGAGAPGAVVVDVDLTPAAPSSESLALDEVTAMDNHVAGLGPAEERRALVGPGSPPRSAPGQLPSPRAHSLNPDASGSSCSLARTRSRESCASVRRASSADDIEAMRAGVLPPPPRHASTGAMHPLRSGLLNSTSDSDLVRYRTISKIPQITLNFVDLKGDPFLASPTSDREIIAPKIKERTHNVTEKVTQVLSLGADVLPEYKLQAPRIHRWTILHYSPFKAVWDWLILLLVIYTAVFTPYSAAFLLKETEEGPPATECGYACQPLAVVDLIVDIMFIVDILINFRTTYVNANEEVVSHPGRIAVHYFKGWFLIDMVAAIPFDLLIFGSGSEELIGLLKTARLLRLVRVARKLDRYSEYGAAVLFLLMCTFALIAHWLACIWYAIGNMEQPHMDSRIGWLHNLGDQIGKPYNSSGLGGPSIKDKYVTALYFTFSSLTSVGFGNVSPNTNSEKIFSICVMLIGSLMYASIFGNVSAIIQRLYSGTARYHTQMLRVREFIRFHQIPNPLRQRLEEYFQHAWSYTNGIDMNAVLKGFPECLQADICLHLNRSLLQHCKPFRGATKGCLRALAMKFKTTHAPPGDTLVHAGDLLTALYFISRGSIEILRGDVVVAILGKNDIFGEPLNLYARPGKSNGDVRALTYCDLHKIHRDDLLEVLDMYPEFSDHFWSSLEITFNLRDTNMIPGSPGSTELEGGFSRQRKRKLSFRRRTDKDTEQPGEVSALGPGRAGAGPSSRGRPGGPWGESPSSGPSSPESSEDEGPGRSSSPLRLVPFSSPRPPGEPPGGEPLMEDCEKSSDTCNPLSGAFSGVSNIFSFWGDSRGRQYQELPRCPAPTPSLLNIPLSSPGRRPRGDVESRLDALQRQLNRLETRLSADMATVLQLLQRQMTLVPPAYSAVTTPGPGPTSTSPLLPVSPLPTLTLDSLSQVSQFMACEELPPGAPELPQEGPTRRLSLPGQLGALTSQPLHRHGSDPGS

Row | SMILES | hERG current change (%, negative = inhibition) at 1uM [%]
1 | COCCOC(=O)c1ccc(NC(=O)COc2ccc([N+](=O)[O-])cc2)cc1 | 7.53
2 | COc1ccc(CCNC(=O)c2ccc(Cl)cc2)cc1OC | 9
3 | O=C(CC(C(=O)O)N1CCOCC1)Nc1ccc(Cl)cc1 (centres unmarked) | 9.6
4 | COc1ccc(/C=N/NC(=O)c2cccc(NC(=O)c3ccc(Cl)cc3)c2)c(OC)c1 | 6.89
5 | CC(=O)c1nn(-c2cccc(Br)c2)cc1C(=O)c1ccc(C)cc1 | 11.9
6 | CCC(C)N(C(=O)COC(=O)CSc1ccc(C)c(C)c1)C1CCS(=O)(=O)C1 (centres unmarked) | 4.13
7 | N#C/C(=C(/O)c1ccc([N+](=O)[O-])cc1)c1nc2ccccc2[nH]1 | 10.7
8 | Cc1ccccc1NC(=S)NCc1ccc2[nH]c3c(c2c1)CCCC3 | 6.19
9 | COc1cccc(NC2c3ccccc3C(=O)N2Cc2ccco2)c1 (centres unmarked) | -0.361
10 | C=C(Cl)COC(=O)C1C2C=CC(C2)C1C(=O)O (centres unmarked) | 6.19
11 | CCCCS(=O)(=O)N1CCCC(C(=O)Nc2ccc3c(c2)CCC3)C1 (centres unmarked) | 6.94
12 | CCC1(c2ccccc2)NC(=O)N(CC(=O)Nc2ccc(Cl)c(S(=O)(=O)N3CCCCC3)c2)C1=O (centres unmarked) | 18.8
13 | O=C(COC(=O)c1ccc(S(=O)(=O)N2CCCC2)cc1)NCc1ccc(Cl)cc1 | 0.537
14 | Cc1cccc(NNC(=O)C(=O)NNc2cccc(C)c2)c1 | 13.1
15 | O=C(CN1C(=O)c2ccccc2S1(=O)=O)NCCSc1ccccc1 | 4.96
16 | S=c1[nH]nc(-c2ccncc2)n1/N=C/c1cn(-c2ccccc2)nc1-c1ccc(Cl)cc1 | -0.199
17 | Cn1cnnc1Sc1ccc(C(=O)OCC(=O)Nc2cc(Cl)cc(Cl)c2)cc1[N+](=O)[O-] | 0.871
18 | COc1ccc(CC(=O)NNC2=Nc3cccc4cccc2c34)cc1 | 14.1
19 | CCCOc1ccc(C2C(C(=O)c3cc4ccccc4o3)=C(O)C(=O)N2c2cc(C)on2)cc1 (centres unmarked) | 15.6
20 | COc1ccc(CNC(=O)CN2C(=O)COc3ccc(S(=O)(=O)NC4CCCC4)cc32)cc1 | 1.06
21 | CCOC(=O)c1oc2c(c1C)C(=O)CCC2 | 15.4
22 | COc1ccc(CN(CC(=O)NCCc2ccccc2)C(=O)CCC(=O)Nc2ccccn2)cc1 | -4.78

Row | SMILES | hERG current change (%, negative = inhibition) at 1uM [%]
23 | COc1cc(S(=O)(=O)NCc2ccccc2)ccc1-n1cnnn1 | 1.45
24 | CCOC(=O)c1[nH]cnc1C(=O)Nc1ccc(C)cc1 | 11.8
25 | S=c1nccc(-c2ccc3c(c2)CCO3)[nH]1 | 3.6
26 | O=C(NCCCc1ccccc1)C(=O)NCC1OCCN1S(=O)(=O)c1ccc(F)cc1 (centres unmarked) | 12
27 | CCOC(=O)c1c(C)n(OCc2ccccc2)c2ccc3c(no[n+]3[O-])c12 | 10.8
28 | COc1ccc(C2=NCC(=O)N(CC(=O)NCc3ccco3)c3sc4c(c32)CCCC4)cc1OC | 10.1
29 | CCN(CC)CCn1c2c(c(SCC(=O)NCc3ccccc3)nc1=O)CCCC2 | -5.34
30 | COc1ccc(/C(C)=N/Nc2nc3ccccc3n3cnnc23)cc1OC | -3.91
31 | CCN(CC)S(=O)(=O)c1ccc(C(=O)NCc2ccc3c(c2)OCO3)cc1 | 4.58
32 | O=C1CC(N2CCN(S(=O)(=O)c3cccc(C(F)(F)F)c3)CC2)C(=O)N1Cc1ccccc1 (centres unmarked) | 11.1
33 | COc1cc(C)c(CNc2cccc(C)c2)cc1C | 7.65
34 | CCN(CC)S(=O)(=O)c1ccc(Cl)c(C(=O)OC2CC(C)OC2=O)c1 (centres unmarked) | 13.8
35 | CC1CCC(NC(=O)C2CCN(S(=O)(=O)c3cccc4nonc34)CC2)CC1 (centres unmarked) | 16
36 | CCn1c(O)c(C=Nc2ccc(N3CCOCC3)c(Br)c2)c(=O)n(CC)c1=S | 10.3
37 | COC(=O)CC(=O)N1CCN(c2ccc(Cl)c(Cl)c2)CC1 | 3.4
38 | C/C(=N\NC(=O)c1c(C)nc2ccccn12)c1ccccc1F | 12.1
39 | CNc1cc(CSC)nc(SCc2ccc(Cl)c(Cl)c2)n1 | 10.2
40 | O=C(O)C(=O)O.O=[N+]([O-])c1ccc(S(=O)(=O)N(CCCN2CCOCC2)Cc2cccs2)cc1 | -22.5
41 | COc1cc(-c2nc(Cc3ccccc3Cl)no2)cc(OC)c1OC | -2.18
42 | CCCOc1ccc(C2C(C(=O)OC)=C(C)N=C3SCCC(=O)N32)cc1OCC (centres unmarked) | -0.267
43 | Cc1cc(C)c(NC(=O)c2ccc(S(=O)(=O)N(C)C)cc2)c(C)n1 | 8.31
44 | CC(=O)c1ccc(NC(=O)c2sc3nc(C)c(C)c(C)c3c2N)cc1 | 16.2

Row | SMILES | hERG current change (%, negative = inhibition) at 1uM [%]
45 | Cl.O=C(NCCN1CCN(c2ccccc2)CC1)c1ccccc1F | 9.01
46 | CCc1ccc2oc(=O)cc(CN(C)Cc3ccccc3)c2c1 | 6.82
47 | Cc1ccc(N2C(=O)CC(=O)NC2=O)c(C)c1 | 14.9
48 | Cn1c(SCc2ccccc2F)nc2ccccc2c1=O | -2.19
49 | CCC(C)(C)n1nnnc1C(C(C)C)N(CCCO)Cc1cc2cc(C)ccc2[nH]c1=O (centres unmarked) | 3.96
50 | Cc1cc(C)cc(C(=O)NCC(=O)N2CCC3(CC2)NCCc2[nH]cnc23)c1 | 16.6
51 | CN(Cc1cccs1)C(=O)CNC(=O)c1ccco1 | 2.88
52 | CNC(=O)c1ccccc1NC(=O)C1CC(=O)N(c2ccc(OC)cc2)C1 (centres unmarked) | 9.77
53 | COC(=O)c1cccc(Nc2nc3ccccc3nc2C)c1 | 12.4
54 | CN(C)c1ccc(/C=N/NC(=O)c2ccc3c(c2)OCCO3)cc1 | 6.47
55 | COc1ccc(C(=O)Nc2cccc(S(C)(=O)=O)c2)cc1 | -4.88
56 | CSc1nc2ccc(Nc3nc(N4CCOCC4)nc(N4CCOCC4)n3)cc2s1 | -7.88
57 | CC(C)C[C@H](NC(=O)c1nc[nH]c1C(=O)N(C)Cc1ccccc1)C(=O)OC(C)(C)C | 11.8
58 | Cc1cc(OCC(=O)N2CCC(C(=O)O)CC2)c2c(C)cc(=O)oc2c1 | 1.81
59 | COc1cc(/C=C(\C#N)c2ccccn2)ccc1OCc1ccccc1Cl | 5.19
60 | Cc1cccc2cc(CN(CC3CCCO3)C(=O)c3ccco3)c(=O)[nH]c12 (centres unmarked) | 3.08
61 | O=C(Nc1ccccc1N1CCN(C(=O)c2ccccc2)CC1)c1cccc(Cl)c1 | -12.6
62 | NC1=NC(=O)C(Cc2ccc(OC(F)(F)F)cc2)S1 (centres unmarked) | 11.9
63 | CC(NC(=O)CSc1ncccc1C(=O)O)C1CC2CCC1C2 (centres unmarked) | 7.06
64 | Cc1ccccc1CC1(CO)CCCN(C(=O)c2cc(-c3ccccc3)no2)C1 (centres unmarked) | 8.98
65 | Cn1c(SCC(=O)c2ccccc2)nnc1-c1ccco1 | 12.5
66 | COc1ccc(-c2noc(CN(C)C(=O)c3ccc4c(c3)OCO4)n2)cc1OC | 11

Row | SMILES | hERG current change (%, negative = inhibition) at 1uM [%]
67 | C[C@H](NC(=O)c1nc[nH]c1C(=O)NC(c1ccccc1)c1ccccc1)C(=O)OCc1ccccc1 | 14.8
68 | COc1ccccc1NC(=O)NCC1CC1(Cl)Cl (centres unmarked) | 9.83
69 | CC(NC(=O)COc1ccccc1)C(c1cccs1)N1CCCC1 (centres unmarked) | 9.93
70 | Fc1ccccc1CNc1nc(-c2cccnc2)nc2ccccc12 | 19.7
71 | CCOC(=O)C1=C(CC)Nc2ccccc2N/C1=N\S(=O)(=O)c1ccc(C(=O)OCC)cc1 | 9.45
72 | COC(=O)CSc1c(-c2ccccc2)c2cc(Cl)ccc2[nH]c1=O | 10.3
73 | CCOC(=O)C(C(=O)OCC)C1CS(=O)(=O)CC1C(C(=O)OCC)C(=O)OCC (centres unmarked) | 14.8
74 | CCCCc1nc(NCCNC(=O)c2ccccc2)c(C#N)c2c1CSC(C)(C)C2 | 11.8
75 | CNc1nc(Oc2ccc(C(=O)OC)cc2)nc(SC)n1 | 10.4
76 | Cn1c(SCc2cccc(C(F)(F)F)c2)nnc1-c1ccco1 | 1.63
77 | CS(=O)(=O)c1nc(S(=O)(=O)c2ccc(Cl)cc2)c(N2CCCCC2)s1 | 13.9
78 | CCOC(=O)c1ccc(NC(=S)N2CCN(CCN=CC3=C(O)CC(C)(C)CC3=O)CC2)cc1 | -6.51
79 | O=C(c1cccc(F)c1)N1CCN(c2ccc([N+](=O)[O-])c(N3CCCCC3)c2)CC1 | 2.24
80 | COCCN1C(=O)c2cc(C(=O)Nc3ccc(OC)c(OC)c3)ccc2C1Nc1ccc(OC)c(OC)c1 (centres unmarked) | 7.78
81 | CCOC(=O)c1c(NC(=O)CN2C(=O)NC3(CCCCC3)C2=O)sc(C)c1-c1ccc(C)cc1 | 8.67
82 | O=c1[nH]cnc2c1c(-c1ccccc1)cn2-c1ccccc1 | 8.09
83 | O=C(CN1CCCC1)Nc1nc(-c2ccc3c(c2)CCN3C(=O)c2ccccc2F)cs1 | 9.78
84 | O=C(COC(=O)C1CC1)Nc1ncc(Cl)cc1Cl | 13
85 | C/C(O)=C(\N=Nc1cc(C)ccc1O)C(N)=O | 6.16
86 | N#C/C(=C\c1ccc[nH]1)C(=O)Nc1ccccc1F | 10.2

Reference: article PMC4336329 (PLoS ONE, 2015)
